{
  "source": "the RNAGym collection of RNA variant scans (doi:10.7554/elife.90254)",
  "parents": {"B1": {"name": "LINE1-mini (parent)", "chain": "GGCAGAGCUCAACACAGCGUGGCAAAGUGGCUGUGGCUAGACUGCC"}},
  "note": "Read counts are not given, so values of variants with three or more changes are uncertain.",
  "data": [
    {"variants_of": "B1", "assay": "self-cleavage, relative activity (ratio to wild type); higher = more cleavage; in vitro, sequencing; the parent is a self-cleaving ribozyme", "values": [
      {"variant": "GGCAGAGCUCAACAAAGCGUGGCAAAAUUGCUGUGGCUAGACUGCC", "note": "[C15A G27A G29U]", "self-cleavage": 0.21},
      {"variant": "GGCAGAGCUCAACAAAGCGUGGCAAACUGCCUGUGGCUUGCCUACC", "note": "[C15A G27C G30C A39U A41C G44A]", "self-cleavage": 0.03},
      {"variant": "GGCAGAGCUCAACAAAGCGUGGCAAAUUGGCUGUGGUUAGGCUGCC", "note": "[C15A G27U C37U A41G]", "self-cleavage": 0.44},
      {"variant": "GGCAGAGCUCAACAAAGCGUGGCAAAUUGGCUGUGGCUAAACUGGC", "note": "[C15A G27U G40A C45G]", "self-cleavage": 0.01},
      {"variant": "GGCAGAGCUCAACAAAGCGUGGCAAAGUCGCUGUGGAUAGGCUGCC", "note": "[C15A G29C C37A A41G]", "self-cleavage": 0.04},
      {"variant": "GGCAGAGCUCAACAAAGCGUGGCAAAGUCGCUGUGACUAGACUGCC", "note": "[C15A G29C G36A]", "self-cleavage": 0.01},
      {"variant": "GGCAGAGCUCAACAAAGCGUGGCAAAGUGGCUAUGGCUAGAGUGCC", "note": "[C15A G33A C42G]", "self-cleavage": 0.01},
      {"variant": "GGCAGAGCUCAACAAAGCGUGGCAAAGUGGCUAGGGUUAGACUGCC", "note": "[C15A G33A U34G C37U]", "self-cleavage": 0.01},
      {"variant": "GGCAGAGCUCAACAAAGCGUGGCAAAGUGGCUUUGGCUUGACUGCC", "note": "[C15A G33U A39U]", "self-cleavage": 0.01},
      {"variant": "GGCAGAGCUCAACAAAGCGUGGCAAAGUGGCUGUUGCUAGACUGAC", "note": "[C15A G35U C45A]", "self-cleavage": 0.01},
      {"variant": "GGCAGAGCUCAACAAAGCGUGGCAAAGUGGCUGUGAUUAGACUGCC", "note": "[C15A G36A C37U]", "self-cleavage": 0.03},
      {"variant": "GGCAGAGCUCAACAAAGCGUGGCAAAGUGGCUGUGGCUAUUCUGCC", "note": "[C15A G40U A41U]", "self-cleavage": 0.22},
      {"variant": "GGCAGAGCUCAACAAAGCGAGGCAAAGUGGCAGUGGCUUGACUGCC", "note": "[C15A U20A U32A A39U]", "self-cleavage": 0.02},
      {"variant": "GGCAGAGCUCAACAAAGCGGGGCACAGUGGCUGUGGCUAGACUGCC", "note": "[C15A U20G A25C]", "self-cleavage": 0.02},
      {"variant": "GGCAGAGCUCAACAAAGCGUGGCAAAGAGGCUGUGGGUAGACUGCC", "note": "[C15A U28A C37G]", "self-cleavage": 0.01},
      {"variant": "GGCAGAGCUCAACAAAGCGUGGCAAAGAGGCUUUGCCUAGGCUGCC", "note": "[C15A U28A G33U G36C A41G]", "self-cleavage": 0.01},
      {"variant": "GGCAGAGCUCAACAAAGCGUGGCAAAGAGGCUGUGGCCAGACUGCC", "note": "[C15A U28A U38C]", "self-cleavage": 0.09},
      {"variant": "GGCAGAGCUCAACAAAGCGUGGCAAAGGGGCUGGGGCUAGACUGCC", "note": "[C15A U28G U34G]", "self-cleavage": 0},
      {"variant": "GGCAGAGCUCAACAAAGCGUGGCAAAGUGGCAGUUGCUAGACUGCC", "note": "[C15A U32A G35U]", "self-cleavage": 0.18},
      {"variant": "GGCAGAGCUCAACAAAGCGUGGCAAAGUGGCCGUGGCUCGACUGCC", "note": "[C15A U32C A39C]", "self-cleavage": 0.03},
      {"variant": "GGCAGAGCUCAACAAAGCGUGGCAAAGUGGCCCUGGCUAGACUGCC", "note": "[C15A U32C G33C]", "self-cleavage": 0.02},
      {"variant": "GGCAGAGCUCAACAAAGCGUGGCAAAGUGGCGGUGGUUAGACUGCC", "note": "[C15A U32G C37U]", "self-cleavage": 0.09},
      {"variant": "GGCAGAGCUCAACAAAGCGUGGCAAAGUGGCUGCGACGAGACUGCC", "note": "[C15A U34C G36A U38G]", "self-cleavage": 0.04},
      {"variant": "GGCAGAGCUCAACAAAGCGUGGCAAAGUGGCUGCGCCUAGACUGCC", "note": "[C15A U34C G36C]", "self-cleavage": 0.02},
      {"variant": "GGCAGAGCUCAACAAAGCGUGGCAAAGUGGCUGGGGCUAGACUGCU", "note": "[C15A U34G C46U]", "self-cleavage": 0.01},
      {"variant": "GGCAGAGCUCAACAAAGCGUGGCAAAGUGGCUGUGGCCGGACUGCC", "note": "[C15A U38C A39G]", "self-cleavage": 0.04},
      {"variant": "GGCAGAGCUCAACAGCUCGUGGCAAAGUAGAUGUGGCUAGACUGCC", "note": "[C15G A16C G17U G29A C31A]", "self-cleavage": 0.01},
      {"variant": "GGCAGAGCUCAACAGCGCUUGGCAAAGUGGCUGUGGCUAGACUGCC", "note": "[C15G A16C G19U]", "self-cleavage": 0.01},
      {"variant": "GGCAGAGCUCAACAGCGCGUAGCAAAGUGGCUGUGGCCAGACUGCC", "note": "[C15G A16C G21A U38C]", "self-cleavage": 0.05},
      {"variant": "GGCAGAGCUCAACAGCGCGUGGCAAAGUGGCUGUACCUAGACUGCC", "note": "[C15G A16C G35A G36C]", "self-cleavage": 0.23},
      {"variant": "GGCAGAGCUCAACAGGGCGUCGCAAAGUGGCUGUGGCUAGACUGCC", "note": "[C15G A16G G21C]", "self-cleavage": 0.03},
      {"variant": "GGCAGAGCUCAACAGAGCGUGGCCAACUGGCUGUGGCUAGACUGCC", "note": "[C15G A24C G27C]", "self-cleavage": 0.04},
      {"variant": "GGCAGAGCUCAACAGAGCGUGGCCAAGUGGCUGUGCCUACACUGCC", "note": "[C15G A24C G36C G40C]", "self-cleavage": 0.07},
      {"variant": "GGCAGAGCUCAACAGAGCGUGGCCAAGUGGCCGUAGCUAGAGUGCC", "note": "[C15G A24C U32C G35A C42G]", "self-cleavage": 0},
      {"variant": "GGCAGAGCUCAACAGAGCGUGGCUAAGUGGAUGUGGCUAGACUGCC", "note": "[C15G A24U C31A]", "self-cleavage": 0.02},
      {"variant": "GGCAGAGCUCAACAGAGCGUGGCUAAGUGGAUGUGGCUAGCUUGUC", "note": "[C15G A24U C31A A41C C42U C45U]", "self-cleavage": 0.02},
      {"variant": "GGCAGAGCUCAACAGAGCGUGGCUAAGAGGCUGUGGCUAGACUGCC", "note": "[C15G A24U U28A]", "self-cleavage": 0.03},
      {"variant": "GGCAGAGCUCAACAGAGCGUGGCUAAGUGGCUGGGGUUAGACUGCC", "note": "[C15G A24U U34G C37U]", "self-cleavage": 0.03},
      {"variant": "GGCAGAGCUCAACAGAGCGUGGCACAUUGGAGGUGGCUAGACUGCC", "note": "[C15G A25C G27U C31A U32G]", "self-cleavage": 0},
      {"variant": "GGCAGAGCUCAACAGAGCGUGGCACAGUGGCUGGGGCUAGACUGCC", "note": "[C15G A25C U34G]", "self-cleavage": 0.01},
      {"variant": "GGCAGAGCUCAACAGAGCGUGGCAACGUGGCUGUGGUUAGAUUGCC", "note": "[C15G A26C C37U C42U]", "self-cleavage": 0.01},
      {"variant": "GGCAGAGCUCAACAGAGCGUGGCAAAGUGGCUGUGGCUAGUCUGCG", "note": "[C15G A41U C46G]", "self-cleavage": 0.01},
      {"variant": "GGCAGAGCUCAACAGAGAAUGGCAAAGUGGCUGUGGCAAGACUGCU", "note": "[C15G C18A G19A U38A C46U]", "self-cleavage": 0.02},
      {"variant": "GGCAGAGCUCAACAGAGAGUGGCAAAGUGGCUGUGCCUAGACUGCC", "note": "[C15G C18A G36C]", "self-cleavage": 0.01},
      {"variant": "GGCAGAGCUCAACAGAGGGUGGCGAAGUGGCCGUGGCUAGACUGCC", "note": "[C15G C18G A24G U32C]", "self-cleavage": 0.02},
      {"variant": "GGCAGAGCUCAACAGAGGGUGGCAACGUGGCUGUGGCUGGACUGCC", "note": "[C15G C18G A26C A39G]", "self-cleavage": 0.13},
      {"variant": "GGCAGAGCUCAACAGAGGGUAGCAAAGUGGCUGUGGCUCGACUGCC", "note": "[C15G C18G G21A A39C]", "self-cleavage": 0.02},
      {"variant": "GGCAGAGCUCAACAGAGGGUGGCAAAGUGGCUGAGGCUAGACUGCC", "note": "[C15G C18G U34A]", "self-cleavage": 0.03},
      {"variant": "GGCAGAGCUCAACAGAGCGUGGAAAAGUGGCUGUGGCUAGCCUGCC", "note": "[C15G C23A A41C]", "self-cleavage": 0.04},
      {"variant": "GGCAGAGCUCAACAGAGCGUGGGAAAGUAGUUCUGGCUAGACUGCC", "note": "[C15G C23G G29A C31U G33C]", "self-cleavage": 0.23},
      {"variant": "GGCAGAGCUCAACAGAGCGUGGUGAAGUGGCUGUGGCUAGACUCCC", "note": "[C15G C23U A24G G44C]", "self-cleavage": 0.01},
      {"variant": "GGCAGAGCUCAACAGAGCGUGGCAAAGUGGAUGUGGGUAGACUGGC", "note": "[C15G C31A C37G C45G]", "self-cleavage": 0.05},
      {"variant": "GGCAGAGCUCAACAGAGCGUGGCAAAGUGGAUGUGCCUAGACUGCC", "note": "[C15G C31A G36C]", "self-cleavage": 0.02},
      {"variant": "GGCAGAGCUCAACAGAGCGUGGCAAAGUGGUUGUGGCUAGACUUCC", "note": "[C15G C31U G44U]", "self-cleavage": 0.01},
      {"variant": "GGCAGAGCUCAACAGAGCGUGGCAAAGUGGUAGUGGCAAGAAUGCC", "note": "[C15G C31U U32A U38A C42A]", "self-cleavage": 0.05},
      {"variant": "GGCAGAGCUCAACAGAGCGUGGCAAAGUGGCUGUGGGUAGAAUGCC", "note": "[C15G C37G C42A]", "self-cleavage": 0}
    ]}
  ]
}
